Some of the results follow. These are further read-outs of the screen, such as a control signal, another cell line or another target. No call is given for them. Compounds called inactive in the main read-out are mostly missing here.
Assay: beta-lactam sensitization of Mtb H37Rv, H37Rv (AID 434955);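 further: growth measured after seven days incubation then overnight dye step; 0% = bacteria only wells and 100% = bacteria with antibiotic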
Settings: M. tuberculosis H37Rv growth with meropenem, percent inhibition; measured here: primary screen without meropenem; at 25 µM

Row | Compound | inhibition [%]
1 | COc1ccc(Cl)cc1Nc1nc(-c2sc(NC(=O)c3ccccc3)nc2C)cs1 | 6.72
2 | O=C(CN(Cc1ccccc1)S(=O)(=O)c1ccc(F)cc1)NCc1cccnc1 | 1.7
3 | Cc1ccc(Cn2nnnc2CN2CCC(n3nnc4cc(C)ccc43)CC2)cc1 | 98.2
4 | C[C@@H](NC(=O)c1[nH]cnc1C(=O)Nc1ccccc1)c1ccccc1 | 96.2
5 | COCCCNc1nc2ccccc2nc1NS(=O)(=O)c1cccc(C)c1 | 0
6 | CC1(C)Cc2c(cnn2-c2ccccc2)C(NC(=O)CCc2ccncc2)C1 (stereo not drawn) | 3.15
7 | CC(C)(C)N(Cc1ccccc1)C(=O)COC(=O)CN1C(=O)NC2(CCCC2)C1=O | 0.05
8 | COc1cccc(C2=NOC(C(=O)N3CCc4ccccc4C3)C2)c1 (stereo not drawn) | -7.31
9 | C/C(=N\NC(=O)c1c(Cl)c(C)nn1C)c1cccc(NC(=O)C2CCCC2)c1 | -1.26
10 | O=C(Nc1ccc2c(c1)OCCO2)c1ccc(Cl)c(S(=O)(=O)N2CCCCC2)c1 | 11.4
11 | CSc1ccc(/C=N/NC(=O)C[n+]2ccccc2)cc1 | 3.38
12 | N=C1C(c2nc3ccccc3[nH]2)=C(O)CN1c1ccc(F)cc1 | 4.39
13 | O=c1c2c(nc3c(-c4ccc(Cl)cc4)c[nH]n13)CCC2 | -5.07
14 | CC(=O)Nc1ccc(NC(=S)NC(=O)C2CC2)cc1 | 6.62
15 | COc1ccc(-c2cc(C(=O)N3CCN(S(=O)(=O)c4ccc(C)cc4)CC3)[nH]n2)cc1 | 4.84
16 | CCCc1ccc(Oc2cc(N3CCOCC3)nc(-c3ccccc3)n2)cc1 | 17.9
17 | Cc1cc(C(=O)Nc2ccccc2C#N)n(-c2ccccc2)n1 | -10.7
18 | Cc1ccc(CNC(=O)Cn2c(=O)n(CC(=O)N3CCCCC3)c(=O)c3sccc32)cc1 | 0.94
19 | CCc1ccc(CN2CCC(n3nccc3NC(=O)C3CCCC3)CC2)cc1 | -15.8
20 | CC(C)(C)CN1CCC(n2nccc2NC(=O)c2ccccc2Cl)CC1 | -3.57
21 | CCOC(=O)c1cnc(-n2nc(C)cc2C)nc1NCc1ccc2c(c1)OCO2 | 84.2
22 | Cc1ccc(S(=O)(=O)/N=C(/Nc2nc(C)cc(C)n2)N2CCOCC2)cc1 | 1.52
23 | COCCN1C(=O)c2oc3cc(C)c(C)cc3c(=O)c2C1c1ccc(O)cc1 (stereo not drawn) | -5.23

Row | Compound | inhibition [%]
24 | COc1ccc(C2C(C(C)=O)=C(C)N=c3s/c(=C\c4ccco4)c(=O)n32)c(OC)c1 (stereo not drawn) | 6.42
25 | COc1ccc(S(=O)(=O)N(CC(=O)Nc2ccc(S(=O)(=O)N3CCOCC3)cc2)Cc2ccc(F)cc2)cc1 | -4.96
26 | Cc1cccc(NC(=O)c2nc[nH]c2C(=O)N[C@@H](CC(C)C)C(=O)OCc2ccccc2)c1 | 37
27 | O=C(NC1CC1)c1ccc2c(c1)C1C3CCC(C3)C1C(c1ccccc1)N2 (stereo not drawn) | 77
28 | CCNS(=O)(=O)c1ccc(NC(=O)c2cccnc2)cc1 | -1.68
29 | Cc1ccc(C)c(-n2c(-c3ccco3)n[nH]c2=S)c1 | 28.2
30 | COc1cc(NS(=O)(=O)c2ccc(NC(=O)c3ccc(Cl)cc3Cl)cc2)ncn1 | 0.49
31 | COc1ccccc1NC(=O)COc1ccc2ccccc2c1 | 82
32 | CN(C)c1nc(Nc2ccccc2)nc(N(C)C)n1 | -2.69
33 | COCC(C)N1CCC(Oc2ccc(C(=O)NCc3ccccn3)cc2)CC1 (stereo not drawn) | 3.64
34 | CC(=O)c1cccc(S(=O)(=O)N(CCCO)Cc2cc3ccc(C)cc3[nH]c2=O)c1 | -11.6
35 | CN(CCO)c1cc(Sc2nc3ccccc3s2)c2nonc2c1[N+](=O)[O-] | 98.1
36 | COc1ccccc1/C=C/C(=O)NCC(=O)N/N=C/c1cc(Br)ccc1OC | -1.26
37 | O=C(c1cc2c(s1)CCCC2)n1cccn1 | 47.9
38 | CCn1c(=NC(=O)CCS(=O)(=O)c2ccccc2)sc2cccc(OC)c21 | -5.62
39 | Cc1ccc(-c2ccc(S(=O)(=O)Nc3cccnc3)cc2)cc1 | 3.19
40 | COc1ccc(C(=O)NNc2ccccc2)cc1OC | 98.7
41 | Cc1cccc(C(=O)OCC(=O)c2ccc3c(c2)OCO3)c1O | 84.8
42 | Cc1ccc(C)c(OCC(=O)NC2CCCCCC2)c1 | 7.8
43 | Cc1ccc(-n2nnnc2SCC(=O)Nc2ccc(N3CCN(C)CC3)cc2)c(C)c1 | 44
44 | C/C=C(\C)CN1CCC(n2nccc2NC(=O)c2ccc3c(c2)OCO3)CC1 | -5.08
45 | O=C(c1ccc2nc3ccc(Cl)cc3c(=O)n2c1)N1CCOCC1 | 93.8
46 | N#C/C(=C(/O)c1cccs1)c1nc2ccccc2[nH]1 | -1.52

Row | Compound | inhibition [%]
47 | CC(C)(C)c1ccccc1NC(=O)c1cccnc1 | 0.58
48 | CCC(C)Sc1nc(O)c(Cc2ccccc2)c(=O)[nH]1 (stereo not drawn) | -3.59
49 | CCOC(=O)c1ccc(NS(=O)(=O)c2ccc3c(c2)oc(=O)n3C)cc1 | 1.14
50 | CCOC(=O)c1c(NC(=O)CN2C(=O)NC3(CCC(C)CC3)C2=O)sc(C)c1-c1ccc(C)cc1 (stereo not drawn) | 3.37
51 | COc1cc(CC(=O)N2CCC(n3nccc3NC(=O)C3CC3)CC2)cc(OC)c1OC | -24.2
52 | COc1ccc2oc(C(=O)OCC(=O)NC3CCCC3)c(C)c2c1 | 5.91
53 | CN(C)Cc1ccc(F)cc1Sc1ccc(Cl)cc1Cl | 6.4
54 | CCCCOc1ccc(C(=O)NCC(=O)NCC(=O)OCC)cc1 | 85.6
55 | O=C(CCS(=O)(=O)c1ccccc1)Nc1nnc(-c2ccco2)o1 | 0.36
56 | O=C1C=C2C=C[C@H]3C[C@]2(O1)[C@@H]1CCCCN13 | -3.54
57 | O=C(CN1C(=O)S/C(=C\C=C\c2ccccc2)C1=O)N1CCCCC1 | -6.38
58 | Cc1ccc(S(=O)(=O)c2nc(-c3cccs3)oc2NCc2cccnc2)cc1 | 2.04
59 | COc1ccccc1/C=C/CN1CC(C)OC(C)C1 (stereo not drawn) | -7.72
60 | CN(C)CCCN(C(=O)/C=C/c1cccs1)c1nc2ccc(F)cc2s1 | 36.5
61 | CN(CC1CCCO1)S(=O)(=O)c1ccc(C(=O)Nc2ccccc2F)cc1 (stereo not drawn) | 2.32
62 | CCCCNC(=O)Nc1cc(C(F)(F)F)c[nH]c1=O | -6.78
63 | O=C1CCC(C(=O)N(CCO)Cc2ccccc2)CN1CC1CCCCC1 (stereo not drawn) | 2.89
64 | O=c1c2cc(Cl)ccc2[nH]c(=S)n1Cc1cccs1 | 5.34
65 | COc1ccc(C(=O)NC2CCSc3ccccc32)cc1 (stereo not drawn) | 3.59
66 | Cc1ccc(S(=O)(=O)N(C)CC(=O)N2CC(C)OC(C)C2)cc1 (stereo not drawn) | -0.12
67 | CN1C(=O)C(C)(C)c2cc(S(=O)(=O)N3CCCC3C(=O)NCc3ccccc3Cl)ccc21 (stereo not drawn) | -11.7
68 | O=C(NCCNc1ccc([N+](=O)[O-])cc1)c1cccc(Br)c1 | 4.97
